Variants at the background level are over-represented here.

Here are results for 19 variants from the RNAGym collection of RNA variant scans (doi:10.1073/pnas.2313332121).

B1: TPR 5TU (parent)
chain: GGAUCUUCUCGAUCUAACAAAAAAGACAAAUCUGCCACAAAGCUUGAGAGCAUCUUCGGAUGCAGAGGCGGCAGCCUUCGGUGGCGCGAUAGCGCCAACGUUCUCAACUAUGACACGCAAAACGCGUGCUCCGUUGAAUGGAGUUUAUCAUG

The variants in the data set derive from B1. Briefly: polymerase ribozyme fitness, log enrichment relative to wild type (log ratio); higher = more active; in vitro selection for triplet polymerase activity. In short, it runs like this:
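Mutant libraries were PCR-built and transcribed for each subunit of a heterodimeric triplet polymerase ribozyme and selected for one round in triplicate at −7 °C, frozen, before gel excision of extended constructs and streptavidin-bead capture. Input and output libraries were Illumina-sequenced, keeping genotypes with ≥10 input reads and ≥1 read per output. Fitness is a logarithmic ratio of genotype to wild-type enrichment, in base 2, using inverse-variance-weighted replicate averages.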
GGAUCUUCGCGAUCUAACAAAAAAGAGAAAUCUGCAACAAAGCUUGAGAGCAUCUUAGGAUGCAGAGGCGGCAGCCUUCGGUGGCGCGAUAGCGCCAACGUUCGCAACUGUGACACGCGAAACGCGUGCUCCGUUGAAUGGAGUUUAUCAUG: the “polymerase ribozyme fitness (log ratio)” value was at most -4.2.

Consider GGAUCUUCGCGAUCUAACAAAAAAGACAAAUCUGUCACUAAGCUUGAGAGCAUCUUCGGAUGCAGAGGCGGCAGCCUUGGGUGGCGCGAUAGCGCCAACGUUCUCAACUAUGACACGCAAAACGCGUGCUCCGUUGAAUGGAGUUGAUGAUG, for which the “polymerase ribozyme fitness (log ratio)” value was at most -4.2.

As to GGAUCUUCGCGAUCUAACAAAAAAGACAAAUUUGCCACAAUGCUUGAGAGCUACUUGGGAUGCAGAGGCGCCAGCCUUCGGUGGCGCGAUAGCGCCAACGUUCUCAACUAUGACACGCAAAACGCGUGCUCCGUUGAAUGGAGUUUAUCAUG, the “polymerase ribozyme fitness (log ratio)” value is at most -4.2.

Consider GGAUCUUCGCGAUCUAACAAAAAACAUAAAUCUGUCACAAAGCUUGAGAGCAUCUUCGGAUGCAGAGGCGGCAGCCUUCGGUGGCGCGAUAGCGCCAACGUACUCAACUAUGACACGCAAAACGCGUGCUCCGUUGAAUGGAGUUUCUCAUG, for which the “polymerase ribozyme fitness (log ratio)” value was at most -4.2.

GGAUCUUCGCGAUCUAACAAAAAAGACAAAUCUGCCACAAAGCUUGAGAGCAUCUUCGGAUGCAGAGGCGGCAGCCUUCGGUGGCGCGAUAGCGCUGACGUUGUCAACUAUGACUCGCAAAACGCGAGCUCCGUUGAAUGGAGUUUAUCAUG: the “polymerase ribozyme fitness (log ratio)” value was at most -4.2.

Regarding GGAUCUUCGCGAUCUAACAAAAAAGACAAAUCUGACACAACGCUUGAGAGCAUCUUCGGAUGCAGAGGCGGCAGCCUUCGGUGGCGCCAUAGCGCCAACGUUCUCAACUAUGACACGCAAAACGCGUGCUCCGUUGAAUGGAGUUUAUCAUG, the “polymerase ribozyme fitness (log ratio)” value is at most -4.2.

As to GGAUCUUCGCGAUCUAACAAAAAAGACAAAUCUGCCACAAAGCUUGAGAGCAUCUUCGGAUGCAGAGGCGGCAGCCUUCGGUGGAGCGAUAGCGCCAACGUUCUCAACUAUGACACGCAAAACGCGUGCUCCGUUGAAUGGAAUUUAUCAUG, the “polymerase ribozyme fitness (log ratio)” value was at most -4.2.

On to GGAUCUUCGCUAUCUAACAAAAAAGACAAAUCUGCCACAAAGCAUGAGAGCAUCUUCGGAUGCAGAGGCGGCAGCCUUCGGUGGCGCGAUCGCGCGAACGUUCUCAACUAUGACACGCCAAACGCGUGCUCCGUUGAAUGGAGUUUAUCAUG, for which the “polymerase ribozyme fitness (log ratio)” value is at most -4.2.

For the variant GGAUCUUCGCGAUCUAACAAAAAAGACAAAUCUGCCACAAAGGUUGAGAGCAUCUUCGGAUGCAGAGGCGGCAGCCUUCGGUGGGGUGAUAGCGCUAACGUUCUCAACUAUGACACGAUGAACGCGUGCUCCGUUGAAUGGAGUUUAUCAUG, the “polymerase ribozyme fitness (log ratio)” value was at most -4.2.

For GGAUCUUCGCGAUCUAACAAAAAAGACAAAUCUGCCACAAAACUUGAGAGCAUCUUAGGAUGCAGAGGCGGCAGCCUUCGGUGGCGCGAUAUCGCCAACGUUCUCAACUAUGACACGCAAAACGCGUGCUCCGUUGAAUGGAGUUUAUCAUG, the “polymerase ribozyme fitness (log ratio)” value was at most -4.2.

GGAUCUUCGCGAUCUAACAAAAAAGACAAAUCUGCCACAAAGCUUGAGAGCAUCUUCGGAUGCAGAGGCAGCAGCCUUCGGCGGCGCGAUAGCGCCAACGUUCUCAACUAUGACACGCAAAACGCGUGCUCCGUUGAAUGGAGUUUAUCAUG: the “polymerase ribozyme fitness (log ratio)” value was at most -4.2.

Turning to GGAUCUUCGCGAUCUAACAAAAAAGAUAAAUCUGCCACAAAGCUUGAGAGCAUCUACGGCUGCAGAGGCGGCAGCCUUCGGGGGCGCGAUUGCGCCAACGUUCUCAACUAUGACACGCAAAACGCGUGCUCCGUUGAAUGGAGUUUAUCAUG, the “polymerase ribozyme fitness (log ratio)” value is at most -4.2.

Turning to GGAUCUUCGCGAUCUAACAAAAAAGACAAAUCUGCCACAAAGCUUGAGAGCAUCUUCGGAUGCAGAGGCGGCAGCCUUCGCUGGCGAGAUAGCGCCAACGUUCUCAACUAUGACACGCAAAACGCGUGCUCCGUUGACUGGAGUUUAUCAUG, the “polymerase ribozyme fitness (log ratio)” value is at most -4.2.

For GGAUCUUCGCGAUCUAACAAAAAAGACAAAUCUGCCACAAAGCUUGAGAGCAUCUUCGGAUGCAGAGGCGGCAGCCUUCGGUGGCGCGAUAGUGCCAAGCUUCUCAACCAUGACACGCAAAACGCGUGCUCCGUUGAAUGGAGUUUAUCAUG, the “polymerase ribozyme fitness (log ratio)” value was at most -4.2.

On to GGAUCUUCGCGAUCUAACAAAAAAGACAAAUCUGCCACAAAGCUUGAGAGCAUCUUCGGAUGCAGAGGCGGCAACCUUCGGUGGCGCGAUGGUGCCAACGUUCUCAACUAUGACACGCAAAACGCGUGCUCCGUUGAAUGUAGUUUAUCAUG, for which the “polymerase ribozyme fitness (log ratio)” value was at most -4.2.

As for GGAUCUUCGCGAUCUAACAAAAAAGACAAAUCUGCCACAAAGCUUGAGAGUAUCUUCGGGUGCAGAGGGGGCAGCCUUCGGUGGCGCGAUAGCGCUAACGUUCUCAACUAUGACACGCAAAACGCGUGCUCCGUUGAAUGGAGUUUAUCAUG, the “polymerase ribozyme fitness (log ratio)” value was at most -4.2.

As for GGAUCUUCGCGAUCUAACAAAAAAGACAAAUUUGCCAUAAAGCUUGAGCGCAUCUUCAGUUGCAGAGGCGGCAGCCUUCGGUGGCACGAUAGCGCCAACGUUCUCAACUAUGACACGCAAAACGCGUGCUCCGUUGAAUGGAGUUUAUCAUG, the “polymerase ribozyme fitness (log ratio)” value is at most -4.2.

As for GGAUCUUCGCGAUCUAACAAAAAAGACAAAUCUGCCACAAAGCUUGAGAGCAUCUUCGGAUGCAGAGGCCGCAGCCUUCGGUGGCGUGAUAGCGCCAACGUUCUCAACUAUGACACGCGAAACACGUGCUCCGUUGAAUGUAGUUUAUCAUG, the “polymerase ribozyme fitness (log ratio)” value is at most -4.2.

GGAUCUUCGCGAUCUAACAAAAAAGACAAAUCUGCCACAAAGCUUGAGAACAUCUUCGGAUGCGGAGGCGGCAGCCUUCGGUCGCGCGAUAGCGCCAACGUUCUCAACUAUGACACGCAAAACGCGUGCUCCGUUGAAUGGAGUUUAUCAUG: the “polymerase ribozyme fitness (log ratio)” value was at most -4.2.
